Reference: PubChem BioAssay AID504466 (National Center for Advancing Translational Sciences (NCATS), 2011)
Hit rate of the full screen: of about 330,000 compounds, about 4,200 (1.3%) were called active. Inconclusive results, whose numbers are uncertain, are shown with a selection of clear calls. Calls follow the shape of the dose curve; as a rule, active = well fitted activation curve with a large enough effect; inconclusive = small, poorly fitted or top-dose-only effect; inactive = no such curve, though single readings can be large or run the other way. Potencies beside an inconclusive call are fits to weak or partial responses and may not hold up.
Potency is read from the fitted curve at half-maximal effect; tags tell the direction and shape of the fitted curve.

Test: qHTS screen for small molecules that induce genotoxicity in human embryonic kidney (HEK293T) cells expressing luciferase-tagged ELG1; also: nearly all actives have a fitted effect of over 60% in size
Conditions: HEK293T ELG1-luciferase reporter, luminescence, 16 h; series mostly up to 46 µM
In short: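 DMSO vehicle served as control against compound-treated ELG1-luciferase HEK293T cells; exposure lasted 16 hr at 37 °C and 5% CO2, followed by ONE-Glo luminescence detection after 30 min.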
With `COc1cccc(N=Nc2ccc3cccnc3c2O)c1` the Potency was active: 16.4 µM.
For `Cc1occc1-c1nnc(SC(C)C(=O)Nc2ccccc2F)o1` (centres undefined), the Potency was inconclusive: 9.2 µM [activator, partial curve].
With `CC(/C=N\NC(=O)Cn1cncn1)=C/c1ccc(C(C)C)cc1` the Potency was “inactive”.
With `O=C(c1ccco1)N1CCN(S(=O)(=O)c2ccc(Oc3ccccc3)cc2)CC1` the Potency was inconclusive: 23.1 µM [activator, partial curve, poor fit].
For `CSc1nnc2c(n1)[nH]c1c(C)cccc12`, the Potency was “inactive”.
For `Cc1ccc(-c2cn3cc(C)ccc3n2)cc1`, the Potency was inconclusive: 1.03 µM [activator, single point].
With `C=CCN(C(=O)c1oc2c(Cl)cc(C)cc2c1C)C1CCS(=O)(=O)C1` (centres undefined) the Potency was inconclusive: 8.2 µM [activator, partial curve].
In the case of `O=C(O)CC(NC(=O)CCc1ccccc1)c1ccc(Cl)cc1` (centres undefined), the Potency is reported as “inactive”.
In the case of `CN(C)c1ccc(/C=C/c2ccncc2)cc1`, the Potency is reported as active: 16.4 µM.
In the case of `CCOC(=O)CC1COCCN1Cc1cn[nH]c1-c1cc(OC)c(OC)c(OC)c1` (centres undefined), the Potency is reported as inconclusive: 14.6 µM [activator, partial curve, poor fit].
With `COc1cc(/C=C/c2nc3ccccc3s2)cc(OC)c1O` the Potency was active: 18.3 µM.
With `O=C(CSc1nnc2ccccn12)Nc1ncc(Cl)cc1Cl` the Potency was active: 18.4 µM.
For `COc1cccc(/C=C/C(=O)c2ccc3c(c2)OCO3)c1OC`, the Potency was inconclusive: 23.1 µM [activator, single point].
For `CCOc1cccc(/C=N/N2C(C)CCCC2C)c1O` (centres undefined), the Potency was “inactive”.
In the case of `COC(=O)/C=C1\C(=O)N(c2nc3ccccc3s2)C(=S)N1c1ccc(F)cc1`, the Potency is reported as inconclusive: 11.6 µM [activator, partial curve].
For `O=C(CCCc1c[nH]c2ccccc12)N1CCCCCC1`, the Potency was inconclusive: 8.2 µM [activator, single point].
For `c1cncc(Nc2nc(-c3cccs3)cs2)c1`, the Potency was active: 9.2 µM.
With `O=C1/C(=C/c2cccs2)CCc2ccccc21` the Potency was active: 8.2 µM.
With `CS/C(N)=N/S(=O)(=O)c1ccc(NC(C)=O)cc1` the Potency was “inactive”.
In the case of `c1ccc(C2=Nn3c(nnc3-c3n[nH]c4c3CCC4)SC2)cc1`, the Potency is reported as active: 23.1 µM.
For `CN1CCN(C(=O)CCC(=O)c2ccc(F)cc2)CC1`, the Potency was inconclusive: 13 µM [activator, partial curve, poor fit].
With `CCN1/C(=C\C(=S)Nc2ccccc2)Sc2ccccc21` the Potency was inconclusive: 23.1 µM [activator, partial curve, poor fit].
In the case of `C=CCN(C(=O)C1CC(=O)N(C2CCCC2)C1)c1nc(-c2ccc(S(C)(=O)=O)cc2)cs1` (centres undefined), the Potency is reported as “inactive”.
With `CC1CCc2sc(C(=O)OCC(=O)NCc3ccc(F)cc3)cc2C1` (centres undefined) the Potency was “inactive”.
In the case of `Cc1cc(C)nc(Nc2ccc(C(=O)O)cc2)n1`, the Potency is reported as inconclusive: 11.2 µM [activator, partial curve, poor fit].
In the case of `COc1ccc(NC(=O)CCN2CCCC2)c(OC)c1`, the Potency is reported as “inactive”.
In the case of `CCCCNc1ncnc2c1cnn2-c1ccccc1`, the Potency is reported as inconclusive: 2.31 µM [activator, full curve, poor fit].
For `Cc1nc2ncccn2c1-c1csc(Nc2ccc(N(C)C)cc2)n1`, the Potency was inconclusive: 2.31 µM [activator, full curve, poor fit].
With `Cc1cc(NC(=O)CSc2nnc(-c3ccc4c(c3)OCCO4)o2)no1` the Potency was inconclusive: 8.2 µM [activator, partial curve].
In the case of `Cc1ccccc1C(=O)Nc1ccc(N2CCN(C(=O)c3ccco3)CC2)cc1`, the Potency is reported as “inactive”.
With `Cc1ccc(S(=O)(=O)N(C)c2ccc(OCC(=O)Nc3cccc(-n4cnnn4)c3C)cc2)cc1` the Potency was “inactive”.
In the case of `Cc1noc(C)c1CSCC(=O)N1CCN(c2ccc([N+](=O)[O-])cc2)CC1`, the Potency is reported as “inactive”.
With `Cc1c(Br)c(C(=O)N2CCc3ccccc32)nn1C` the Potency was inconclusive: 18.4 µM [activator, partial curve].
With `CC1CCCC(NC(=O)c2cccc(S(=O)(=O)N3CCN(c4ccccc4)CC3)c2)C1C` (centres undefined) the Potency was inconclusive: 25.9 µM [activator, partial curve, poor fit].
For `COc1ccc2c(c1OC)C(=O)N(c1ccc(C)cc1)C2=O`, the Potency was inconclusive: 23.1 µM [activator, partial curve, poor fit].
With `CCOC(=O)c1cc(=O)n2nc(-c3ccc(C)cc3)nc2s1` the Potency was “inactive”.
With `COc1ccccc1OCc1n[nH]c(=S)n1Cc1ccccc1` the Potency was inconclusive: 0.0046 µM [activator, full curve, poor fit].
In the case of `O=C(Nc1ccc(Cl)cc1Cl)c1cc2ccccc2o1`, the Potency is reported as inconclusive: 8.2 µM [activator, partial curve].
For `O=C(CSc1ccc(-c2ccccn2)nn1)c1ccccc1`, the Potency was inconclusive: 20.6 µM [activator, single point].
In the case of `COc1ccc(CN(CC(=O)NCC2CCCO2)C(=O)CNS(=O)(=O)c2ccccc2)cc1` (centres undefined), the Potency is reported as “inactive”.
For `C/C(=N\O)C(C)(C)Nc1ccccc1F`, the Potency was “inactive”.
With `Cc1ccc(CNc2nc3ccccc3n3nnnc23)cc1` the Potency was inconclusive: 20.6 µM [activator, single point].
For `O=C1c2ccc(Oc3ccc([N+](=O)[O-])cc3)cc2C(=O)N1c1ccncc1`, the Potency was “inactive”.
For `CC(C)CNS(=O)(=O)c1ccc(S(=O)(=O)N2CCN(C3CCCC3)CC2)cc1`, the Potency was “inactive”.
For `O=C1NC2(CCCCC2)C(=O)N1/N=C/c1ccccc1Br`, the Potency was inconclusive: 18.3 µM [activator, single point].
For `COCCNC(=O)C(c1ccc(F)cc1)N(CCOC)C(=O)CCC(=O)Nc1nccs1` (centres undefined), the Potency was inconclusive: 20.6 µM [activator, partial curve, poor fit].
For `COC(C(=O)N/N=C(\C)c1ccc(C)cc1)c1ccccc1` (centres undefined), the Potency was inconclusive: 16.4 µM [activator, partial curve, poor fit].
With `Cc1cc(NC(=O)c2cc(C3CC3)on2)n(-c2ccccc2)n1` the Potency was inconclusive: 29.1 µM [activator, single point].
In the case of `COc1cccc(OCc2cc(C(=O)N3CCN(c4ccccc4O)CC3)no2)c1`, the Potency is reported as inconclusive: 2.91 µM [activator, full curve, poor fit].
